Data on 25 sequences can be found in the supplement of paper PMC11417369.

The other results are listed elsewhere or left out.

In the test the test system is PF3D7_0420300 AP2 domain 1 (GST-tagged). Briefly: gcPBM binding intensity (ln(normalized median fluorescence intensity)); higher = stronger DNA binding. In short, it runs like this: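 The highest Masliner-normalised natural-log median intensity across replicate spots of either probe orientation is reported as binding intensity. GST-tagged P. falciparum DNA-binding domains expressed in E. coli were applied for 1 h to an Agilent 4 × 180k array of primer-extended double-stranded 36-bp intergenic genomic probes plus negative controls, and bound protein was detected with Alexa488 anti-GST antibody and scanned at 488 nm.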
On to “TATTACATTATATAAACATGCAAAACTATATATTAT [TGCATGCA_site601]”, for which the “gcPBM binding intensity (ln)” value worked out at 9.3.
To “ATTTTAGAATTTAATACACACAAAAAAAAAAAATTA [CACACA_site3704]” belongs 9.39; to “TTGATGTTGGTAGGATGTACGGTACCGGTAGTATTT [XGTACX_site6642]”, 9.34.
With “AATTTATTTTTTTGATGTACATACAATTTATCACAA [XGTACX_site5936]”, the “gcPBM binding intensity (ln)” value was 9.19.
For “AAGGAAAAGTAAAGAAGTACTGTACCGCCAAAAAAA [XGTACX_site2607]”, the “gcPBM binding intensity (ln)” value came out at 9.54.
To “AAAATAATAAAAAGGGGTACAAAGAAACAAATATAA [XGTACX_site296]” belongs 9.73; to “TATGTGCATATAAACTCACACATTGTATATTACATG [CACACA_site6106]”, 9.35; to “ATAAAATAACACAACGTTGACAAATTTGGATGACTC [XGTACX_negctrl_site324]”, 9.67.
Consider “TTTATTAAAATATTCTCACACACCAAAATATGTATG [CACACA_site932]”, for which the “gcPBM binding intensity (ln)” value turned out to be 9.37.
Regarding “ATATATGTAGATATATGTACATATATAGGTAGATAT [XGTACX_site7589]”, the “gcPBM binding intensity (ln)” value is 9.53.
For the sequence TATACGTATTACAGAGTGCAATAAACAGTATATATT, the “gcPBM binding intensity (ln)” value turned out to be 9.43.
Turning to “TATATATGTGTATAGAGTACACGTTTTTTTTAATAT [XGTACX_site3128]”, the “gcPBM binding intensity (ln)” value turned out to be 9.29.
For “AAAAACCTGAACTGTGCATGTCATACTTTTACTTTT [TGCATGCA_site73]”, the “gcPBM binding intensity (ln)” value worked out at 9.48.
In the case of “TAAATACATCTATGCACACAAAAAAATATATATTTT [CACACA_site5027]”, the “gcPBM binding intensity (ln)” value was 9.5.
To “TGTATAAACTTTACGTGTACATGAATAATCTATAAT [XGTACX_site3801]” belongs 9.18.
Then “AAAATGGAACTAGGAATAATATAAGAAGATAAAAGG [XGTACX_negctrl_site347]”, with 9.55.
Then “TTGTACAAAAATAATGCACACTATATCAAGTTTTTT [CACACA_site5898]”, with 9.28; and “TAATCATTTTAGCTTACACACAAAATTTTGTTATAA [CACACA_site2939]”, with 9.51; and AAAATAATTTTATAAGTGCAAAATAGCTTATTTATA, with 8.91.
On to “TTTATAAATTCTCTTTTTAAAAAATATTTTTATACT [CACACA_negctrl_site427]”, for which the “gcPBM binding intensity (ln)” value was 8.93.
On to “GTTCAAATTATTATGTGTACTAAAGAATATTTTAAA [XGTACX_site3166]”, for which the “gcPBM binding intensity (ln)” value turned out to be 8.85.
For the sequence “TCTATTTTTTATATGGTGCATTGTTCTTATTAATAT [GTGCAC_site9392]”, the “gcPBM binding intensity (ln)” value amounted to 9.52.
Regarding “CTTTATTTTTTATACACACACAATATGTATTTATAT [CACACA_site5879]”, the “gcPBM binding intensity (ln)” value amounted to 9.81.
Consider “AATTAATTTATGTTACGTACATAAGTATTATATTTT [XGTACX_site388]”, for which the “gcPBM binding intensity (ln)” value was found to be 9.22.
In the case of “AGGAAAAATAATTATTCACACAATAAATATATTTGA [CACACA_site5824]”, the “gcPBM binding intensity (ln)” value turned out to be 9.18.
